Assay results reported in article PMC6018503.
No constants are given. Whether binding was seen depends on the method and setting. In cells and extracts the contact can be indirect. Some binding calls cover weakened binding; strength is not graded here.

Sequences of proteins named here, by UniProt entry; tags and fusion partners are left off.
UniProt Q9FXM3: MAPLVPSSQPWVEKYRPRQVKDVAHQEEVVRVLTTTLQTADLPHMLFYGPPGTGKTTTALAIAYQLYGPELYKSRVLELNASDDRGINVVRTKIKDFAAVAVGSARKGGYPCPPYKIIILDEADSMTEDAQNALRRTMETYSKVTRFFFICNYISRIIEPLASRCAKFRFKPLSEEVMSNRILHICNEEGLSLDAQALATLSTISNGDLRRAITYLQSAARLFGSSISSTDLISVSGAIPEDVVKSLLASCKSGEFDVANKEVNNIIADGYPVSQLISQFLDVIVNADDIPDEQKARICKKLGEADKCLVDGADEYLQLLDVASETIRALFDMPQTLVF
UniProt Q93ZX1: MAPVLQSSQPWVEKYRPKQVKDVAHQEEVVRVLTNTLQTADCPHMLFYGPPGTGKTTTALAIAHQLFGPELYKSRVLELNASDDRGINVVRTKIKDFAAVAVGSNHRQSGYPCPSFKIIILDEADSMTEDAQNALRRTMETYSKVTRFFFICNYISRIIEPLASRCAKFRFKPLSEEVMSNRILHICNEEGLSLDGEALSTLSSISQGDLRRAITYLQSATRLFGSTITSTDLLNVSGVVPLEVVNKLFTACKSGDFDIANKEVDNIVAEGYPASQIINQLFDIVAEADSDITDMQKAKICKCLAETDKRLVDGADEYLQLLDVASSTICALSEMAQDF

T1: OsRFC1 (rice (Oryza sativa)) (UniProt Q2R2B4)
T1 sequence: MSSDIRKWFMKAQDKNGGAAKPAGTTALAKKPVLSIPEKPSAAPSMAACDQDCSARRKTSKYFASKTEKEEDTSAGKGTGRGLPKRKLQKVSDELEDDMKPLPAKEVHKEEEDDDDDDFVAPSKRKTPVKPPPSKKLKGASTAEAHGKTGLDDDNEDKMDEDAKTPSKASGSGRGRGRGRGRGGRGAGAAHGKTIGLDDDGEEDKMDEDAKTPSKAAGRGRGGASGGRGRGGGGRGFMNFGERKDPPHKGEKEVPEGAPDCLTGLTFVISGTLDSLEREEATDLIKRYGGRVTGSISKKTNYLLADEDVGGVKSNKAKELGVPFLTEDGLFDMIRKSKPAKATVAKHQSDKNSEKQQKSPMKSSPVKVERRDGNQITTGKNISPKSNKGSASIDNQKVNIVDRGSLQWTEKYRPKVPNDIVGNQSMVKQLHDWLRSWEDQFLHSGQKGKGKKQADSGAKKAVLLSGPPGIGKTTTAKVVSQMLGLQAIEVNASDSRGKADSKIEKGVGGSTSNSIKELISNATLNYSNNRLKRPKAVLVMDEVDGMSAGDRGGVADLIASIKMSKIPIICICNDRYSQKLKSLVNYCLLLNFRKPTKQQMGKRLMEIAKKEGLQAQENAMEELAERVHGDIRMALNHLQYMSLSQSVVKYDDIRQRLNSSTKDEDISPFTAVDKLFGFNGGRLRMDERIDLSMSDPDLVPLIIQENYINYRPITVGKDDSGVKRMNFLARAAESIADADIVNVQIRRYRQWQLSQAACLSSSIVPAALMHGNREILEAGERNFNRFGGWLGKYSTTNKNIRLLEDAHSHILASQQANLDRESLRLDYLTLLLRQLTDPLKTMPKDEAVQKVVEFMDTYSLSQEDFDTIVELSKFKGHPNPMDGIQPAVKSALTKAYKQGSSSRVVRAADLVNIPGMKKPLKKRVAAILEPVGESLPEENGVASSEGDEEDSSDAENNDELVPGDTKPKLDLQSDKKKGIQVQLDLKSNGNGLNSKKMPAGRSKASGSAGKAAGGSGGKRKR

T2: OsRFC3 (rice (Oryza sativa)) (UniProt Q6YZ54)
T2 sequence: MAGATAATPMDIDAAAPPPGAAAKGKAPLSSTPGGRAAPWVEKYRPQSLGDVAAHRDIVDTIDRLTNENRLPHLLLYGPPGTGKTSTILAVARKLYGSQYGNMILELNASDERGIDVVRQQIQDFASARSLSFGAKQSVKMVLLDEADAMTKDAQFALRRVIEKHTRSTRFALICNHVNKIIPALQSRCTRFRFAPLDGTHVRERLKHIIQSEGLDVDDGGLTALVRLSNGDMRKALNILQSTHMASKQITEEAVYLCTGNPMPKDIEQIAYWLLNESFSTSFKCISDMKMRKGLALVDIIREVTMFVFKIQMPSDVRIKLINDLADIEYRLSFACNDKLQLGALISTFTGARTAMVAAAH

T3: OsRFC4 (rice (Oryza sativa)) (UniProt Q7XRX1)
T3 sequence: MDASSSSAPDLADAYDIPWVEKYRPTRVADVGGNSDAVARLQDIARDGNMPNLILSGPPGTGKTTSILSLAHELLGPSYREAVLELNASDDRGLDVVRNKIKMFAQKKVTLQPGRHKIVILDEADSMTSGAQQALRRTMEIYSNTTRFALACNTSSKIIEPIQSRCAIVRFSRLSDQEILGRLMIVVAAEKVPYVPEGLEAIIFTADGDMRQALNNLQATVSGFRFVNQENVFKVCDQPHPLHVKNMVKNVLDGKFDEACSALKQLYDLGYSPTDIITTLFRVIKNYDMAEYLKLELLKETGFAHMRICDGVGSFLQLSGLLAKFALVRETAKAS


Key:
Experiment in all cases: split reporter; BiFC; YFP^N (aa 1-155) and YFP^C (aa 156-239) fusions (pCAMBIA-SPYNE, pCAMBIA-SPYCE) co-expressed in tobacco (Nicotiana benthamiana) leaf epidermal cells through Agrobacterium GV3101; confocal microscopy of YFP; only the two named fusions
[1] = biological target: T1, OsRFC1 (rice (Oryza sativa))
[2] = biological target: OsRFC2 (rice (Oryza sativa)) (UniProt Q9FXM3)
[3] = biological target: T2, OsRFC3 (rice (Oryza sativa))
[4] = biological target: AtRFC4 (Arabidopsis thaliana) (UniProt Q93ZX1)
[5] = biological target: T3, OsRFC4 (rice (Oryza sativa))

binding [1] | binding [2] | binding [3] | binding [4] | binding [5] | Binder
binds | binds | – | – | – | OsRFC5Δ1–237 (domain or fragment, UniProt Q852K3 238-354) QQYPFTSNQVAPPLDWEQYVSEIAADIMKEQSPKRLFAVRQKFYELLVNCIPPESILKKLLAELLKKLDSDLKHEICHWAAHYEHKMRLGSKAIFHLEAFVAKFMSIYKEFLVSTFG
no binding | – | binds | – | – | OsRFC4 Δ136–335 (domain or fragment, UniProt Q7XRX1 1-135) MDASSSSAPDLADAYDIPWVEKYRPTRVADVGGNSDAVARLQDIARDGNMPNLILSGPPGTGKTTSILSLAHELLGPSYREAVLELNASDDRGLDVVRNKIKMFAQKKVTLQPGRHKIVILDEADSMTSGAQQAL
– | – | – | binds | – | AtRFC5 Δ1–239 (domain or fragment, UniProt Q8VXX4 240-354) YPFTGNQVISPMDWEEYVAEIATDMMKEQSPKKLFQVRGKVYELLVNCIPPEVILKRLLHELLKKLDSELKLEVCHWAAYYEHRMRLGQKAIFHIEAFVAKFMSIYKNFLISTFG
binds | binds | – | – | – | OsRFC5 Δ235–354 (domain or fragment, UniProt Q852K3 1-234) MLWVDKYRPKTLDKVTVHDQVAQNLKKLVAEQDCPHLLFYGPSGSGKKTLVMALIKQMFGAGADKVKMENKTWKIDTGSRNIEIELAMLSSAHHVEMNPSDAGFQDRYVVQEVIKEMAKNRPIDAKGKRAFKVLVLNEVDKLSREAQHSLRRTMEKYSASCRLILCCNSSSKVTEAVRSRCLNVRVNAPSEDQIVQVLEFIGKKENLQLPFGFAARIAAQSNRNLRRAILFFET
no binding | binds | – | – | – | OsRFC5 Δ205–354 (domain or fragment, UniProt Q852K3 1-204) MLWVDKYRPKTLDKVTVHDQVAQNLKKLVAEQDCPHLLFYGPSGSGKKTLVMALIKQMFGAGADKVKMENKTWKIDTGSRNIEIELAMLSSAHHVEMNPSDAGFQDRYVVQEVIKEMAKNRPIDAKGKRAFKVLVLNEVDKLSREAQHSLRRTMEKYSASCRLILCCNSSSKVTEAVRSRCLNVRVNAPSEDQIVQVLEFIGKK
binds | binds | – | – | binds | OsRFC3 Δ1–245 (domain or fragment, UniProt Q6YZ54 246-361) ASKQITEEAVYLCTGNPMPKDIEQIAYWLLNESFSTSFKCISDMKMRKGLALVDIIREVTMFVFKIQMPSDVRIKLINDLADIEYRLSFACNDKLQLGALISTFTGARTAMVAAAH
binds | – | binds | – | – | OsRFC4 Δ1–222 (domain or fragment, UniProt Q7XRX1 223-335) GFRFVNQENVFKVCDQPHPLHVKNMVKNVLDGKFDEACSALKQLYDLGYSPTDIITTLFRVIKNYDMAEYLKLELLKETGFAHMRICDGVGSFLQLSGLLAKFALVRETAKAS
– | – | binds | – | – | MDASSSSAPDLADAYDIPWVEKYRPTRVADVGGNS (domain or fragment, UniProt Q7XRX1 1-35) [OsRFC4 Δ36–335]
binds | – | binds | – | – | OsRFC4 Δ216–335 (domain or fragment, UniProt Q7XRX1 1-215) MDASSSSAPDLADAYDIPWVEKYRPTRVADVGGNSDAVARLQDIARDGNMPNLILSGPPGTGKTTSILSLAHELLGPSYREAVLELNASDDRGLDVVRNKIKMFAQKKVTLQPGRHKIVILDEADSMTSGAQQALRRTMEIYSNTTRFALACNTSSKIIEPIQSRCAIVRFSRLSDQEILGRLMIVVAAEKVPYVPEGLEAIIFTADGDMRQALN
no binding | no binding | – | – | – | OsRFC5 Δ155–354 (domain or fragment, UniProt Q852K3 1-154) MLWVDKYRPKTLDKVTVHDQVAQNLKKLVAEQDCPHLLFYGPSGSGKKTLVMALIKQMFGAGADKVKMENKTWKIDTGSRNIEIELAMLSSAHHVEMNPSDAGFQDRYVVQEVIKEMAKNRPIDAKGKRAFKVLVLNEVDKLSREAQHSLRRTM
– | – | – | binds | – | AtRFC2 Δ1–224 (domain or fragment, UniProt Q9CAM7 225-333) VNQENVFKVCDQPHPLHVKNIVRNVLESKFDIACDGLKQLYDLGYSPTDIITTLFRIIKNYDMAEYLKLEFMKETGFAHMRICDGVGSYLQLCGLLAKLSIVRETAKAP
no binding | binds | – | – | binds | OsRFC3 Δ342–361 (domain or fragment, UniProt Q6YZ54 1-341) MAGATAATPMDIDAAAPPPGAAAKGKAPLSSTPGGRAAPWVEKYRPQSLGDVAAHRDIVDTIDRLTNENRLPHLLLYGPPGTGKTSTILAVARKLYGSQYGNMILELNASDERGIDVVRQQIQDFASARSLSFGAKQSVKMVLLDEADAMTKDAQFALRRVIEKHTRSTRFALICNHVNKIIPALQSRCTRFRFAPLDGTHVRERLKHIIQSEGLDVDDGGLTALVRLSNGDMRKALNILQSTHMASKQITEEAVYLCTGNPMPKDIEQIAYWLLNESFSTSFKCISDMKMRKGLALVDIIREVTMFVFKIQMPSDVRIKLINDLADIEYRLSFACNDKLQ
no binding | no binding | – | – | – | OsRFC5 Δ1–300 (domain or fragment, UniProt Q852K3 301-354) LLKKLDSDLKHEICHWAAHYEHKMRLGSKAIFHLEAFVAKFMSIYKEFLVSTFG
binds | binds | – | binds | – | OsRFC5 (protein, UniProt Q852K3 1-354) MLWVDKYRPKTLDKVTVHDQVAQNLKKLVAEQDCPHLLFYGPSGSGKKTLVMALIKQMFGAGADKVKMENKTWKIDTGSRNIEIELAMLSSAHHVEMNPSDAGFQDRYVVQEVIKEMAKNRPIDAKGKRAFKVLVLNEVDKLSREAQHSLRRTMEKYSASCRLILCCNSSSKVTEAVRSRCLNVRVNAPSEDQIVQVLEFIGKKENLQLPFGFAARIAAQSNRNLRRAILFFETCKVQQYPFTSNQVAPPLDWEQYVSEIAADIMKEQSPKRLFAVRQKFYELLVNCIPPESILKKLLAELLKKLDSDLKHEICHWAAHYEHKMRLGSKAIFHLEAFVAKFMSIYKEFLVSTFG
binds | – | binds | binds | – | OsRFC4 (protein, UniProt Q7XRX1 1-335) MDASSSSAPDLADAYDIPWVEKYRPTRVADVGGNSDAVARLQDIARDGNMPNLILSGPPGTGKTTSILSLAHELLGPSYREAVLELNASDDRGLDVVRNKIKMFAQKKVTLQPGRHKIVILDEADSMTSGAQQALRRTMEIYSNTTRFALACNTSSKIIEPIQSRCAIVRFSRLSDQEILGRLMIVVAAEKVPYVPEGLEAIIFTADGDMRQALNNLQATVSGFRFVNQENVFKVCDQPHPLHVKNMVKNVLDGKFDEACSALKQLYDLGYSPTDIITTLFRVIKNYDMAEYLKLELLKETGFAHMRICDGVGSFLQLSGLLAKFALVRETAKAS
